Source: PMC12339391
No constants are given. Whether binding was seen depends on the method and setting. For some assays here: Binding seen in cells or lysates may run through a third protein. Some entries that bind do so weakly or less than the wild type. For some assays here: Sequences can lack the tags named with a protein.

B1: HsPEX39(ΔC) (C-terminally truncated HsPEX39, residues 1–70) (domain or fragment, UniProt Q5I0X4 1-70)
chain: MERPRSPQCSAPASASASVTLAQLLQLVQQGQELPGLEKRHIAAIHGEPTASRLPRRPKPWEAAALAESL
B2: endogenous PEX7 (protein, UniProt O00628 1-323)
chain: MSAVCGGAARMLRTPGRHGYAAEFSPYLPGRLACATAQHYGIAGCGTLLILDPDEAGLRLFRSFDWNDGLFDVTWSENNEHVLITCSGDGSLQLWDTAKAAGPLQVYKEHAQEVYSVDWSQTRGEQLVVSGSWDQTVKLWDPTVGKSLCTFRGHESIIYSTIWSPHIPGCFASASGDQTLRIWDVKAAGVRIVIPAHQAEILSCDWCKYNENLLVTGAVDCSLRGWDLRNVRQPVFELLGHTYAIRRVKFSPFHASVLASCSYDFTVRFWNFSKPDSLLETVEHHTEFTCGLDFSLQSPTQVADCSWDETIKIYDPACLTIPA

Legend:
[1] = molecular target: T1, [^35S]H6PEX7 (radiolabelled, N-terminally His-tagged human PEX7) (human) (UniProt O00628); assay: native gel or EMSA; [35S]His-PEX7 (0.4 μl reticulocyte lysate) pre-incubated with ONE recombinant protein (HsPEX39 variant 4 μg, His-PEX5(1–324) 1 μg, His-PHYH 100 ng or NtPEX13 variant 4 μg) in 20 μl 20 mM Tris-HCl pH 8.0, 5 mM DTT, 0.025% BSA; non-denaturing 8% gel, 4 °C; autoradiography; only the binder purified
T1 sequence (chain, [35S]methionine): B2 chain

[2] = molecular target: HsPEX39-FLAG-HA (C-terminally FLAG-HA-tagged human PEX39) (human) (UniProt Q5I0X4); assay: co-IP; anti-FLAG M2 magnetic beads; lysates of HCT116 or HEK293T cells stably expressing the FLAG-HA-tagged bait; 50 mM Tris-HCl pH 7.5, 150 mM NaCl, 0.5% NP-40 alternative, 1 mM DTT, 4 h at 4 °C; washes with 400 mM NaCl; immunoblot of endogenous prey

binding [1] | binding [2] | Binder
binds |  | B1
 | binds | B2
